Some of the results follow.
Test system: T1, C. trachomatis L2/434/Bu expressing GFP (CTL2-GFP)
T1 construct: L2/434/Bu GFP intracellular growth in HeLa cells
Set-up: species or system HeLa; C. trachomatis total inclusion area by high-content imaging, normalised to DMSO
Conditions: total inclusion area; 28.5 h, 10 µM; inhibitor
How it was run: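 Following bulk GFP and resorufin fluorescence reads, infected cells were fixed, Hoechst-stained and imaged on a high-content platform. Inclusion total area and number per well served as growth proxies; nuclei counts indicated host viability. MICs were derived as for the fluorescence assay.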

| Structure (SMILES) | % of control remaining |
| --- | --- |
| Nc1cccc(-c2cc(C(=O)NCCc3cccnc3)cnc2-c2ccc(F)cc2)c1 [CBK038016] | 96.6826 |
| O=C(NCCN1CCOCC1)N1CCN(CCc2ccccc2)CC1 [CBK158908] | 99.101 |
| COc1cc(C(C)=O)ccc1OCCCN1CCC(O)(C(=O)c2cccc(C(F)(F)F)c2)CC1 [CBK024866C] | 35.1913 |
| CCCC/C=C/c1cncc(NCCO)n1 [CBK065419] | 110.555 |
| O=C(NCC(F)(F)F)c1ccc(-c2ccccc2)nc1NCc1cccnc1 [CBK076551] | 116.005 |
| Cc1ccc(NC(=O)CN2C(=O)S/C(=C\c3ccc4c(c3)n(C)c(=O)n4C)C2=O)cc1 [CBK264501] | 94.7928 |
| CC(Sc1nc(-c2ccccc2)nc2ccccc12)C(=O)Nc1ccccc1C(F)(F)F (stereo not shown) [CBK265795] | 109.89 |
| O=C(NCc1ccccc1)C1(c2ccccc2)CCCC1 [CBK149540] | 115.379 |
| O=C(Nc1cccc(F)c1)N1CCC(Cc2cccnc2)CC1 [CBK306369] | 48.9624 |
| CCOc1cc([N+](=O)[O-])cc(C=O)c1OC(C)C(=O)O (stereo not shown) [CBK264642] | 111.754 |
| Cc1ccc(/C(N)=N/OC(=O)COc2cccc3ccccc23)cc1 [CBK263009] | 107.451 |
| C=CCN1C(=O)CC2(C1=O)C(=O)N(CCCN(C)S(C)(=O)=O)c1ccc(Cl)cc12 (stereo not shown) [CBK075432] | 109.607 |
| Cc1nn(C(C)C)c(C)c1CN1CCC(c2c(C(=O)NC(C)C)sc3ccccc23)C1 (stereo not shown) [CBK285890] | 96.2191 |
| CCCC(=O)N(C)C1CCC2(CC1)CNC(=O)c1cc(C)ccc1O2 (stereo not shown) [CBK281694] | 99.7582 |
| O=C(CO)N1CC2(CCN(Cc3ccc(OC(F)(F)F)cc3)CC2)c2ccccc21 [CBK131493] | 89.1172 |
| CC(=O)NCCc1nc2ccc(NC(=O)Cn3nc(C)c4ccccc4c3=O)cc2n1C [CBK268249] | 94.5707 |
| CC(=O)N1CCN(C(=O)C(C)S(=O)(=O)c2ccccc2F)CC1 (stereo not shown) [CBK305603] | 48.6673 |
| CC(C)CNC(=O)N1CCN(CCN2CCOCC2)CC1 [CBK155826] | 93.9427 |
| Cc1cc(C)n(C(C)CC(=O)N2CCCCC2CCN2CCCC2)n1 (stereo not shown) [CBK282078] | 104.237 |
| Cc1cc2ncn(CC(=O)NCc3ccccc3)c2cc1C [CBK200213] | 50.4769 |

| Structure (SMILES) | % of control remaining |
| --- | --- |
| COc1cc(/C=C/c2cc(C(F)(F)F)[nH]c(=O)n2)c(Cl)cc1O [CBK287936] | 40.7173 |
| Cc1cc(Cl)cc(Br)c1OCCN1CCN(C)CC1 [CBK269668C] | 75.9539 |
| COc1ccccc1N1CCN(C(=O)CC2(CC(=O)O)CCCC2)CC1 [CBK296137] | 68.7763 |
| CCN(CC)C(=O)CN1CCC(Oc2nccnc2OCCN2CCOCC2)CC1 [CBK082928] | 95.7077 |
| Cc1n[nH]c(-c2ccccc2NC(=O)Cc2sc(C)nc2-c2cccs2)n1 [CBK297737] | 99.9794 |
| CC(C)(C)C(=O)N1CCCC(c2cc3cccnc3[nH]2)C1 (stereo not shown) [CBK284945] | 73.9853 |
| CC(=O)c1cccc(NC(=O)c2cccn(Cc3ccc(C)cc3)c2=O)c1 [CBK294427] | 105.694 |
| CN1CCN(c2nc(-c3ccco3)cn3ccnc23)CC1 [CBK038045] | 84.5414 |
| CCCCOC(=O)CCc1nc2ccccc2nc1O [CBK264523] | 111.242 |
| Cc1ccc(S(=O)(=O)N2CCC(C(=O)NC3(C(=O)O)CCCCC3)CC2)cc1 [CBK295644] | 106.437 |
| C1=Nn2c(nnc2-c2ccncc2)SC(c2ccccc2)=C1 [CBK288535] | 72.6648 |
| CCOCCCNC(=O)c1ccc(-c2cc(Oc3ccc(OC)cc3)ncn2)cc1 [CBK291209] | 80.7896 |
| N#Cc1nc(COc2ccc(Br)cc2)oc1NC1CC1 [CBK266470] | 106.626 |
| CCCCC(=O)NC1CCN(C(=O)c2cccc(C#N)c2)CC1 [CBK306309] | 65.5934 |
| CCOc1cc(NC2CCN(C(=O)C(C)(C)C3CCCC3)CC2)ncn1 [CBK304430] | 42.3409 |
| CC(=O)Nc1cccc(-c2ccc(N3CCN(CCN(C)C)CC3)nc2)c1 [CBK036857] | 135.168 |
| CCOC(=O)c1c(NC(=S)NCc2ccccn2)sc2c1CCCCC2 [CBK266954] | 116.502 |
| O=C1COc2ccccc2C/C=C/CC2(CCN(CC3CCOCC3)CC2)CN1 [CBK292128] | 104.395 |
| O=C1NCCNC(=O)C2(C/C=C/COc3ccccc31)CCCNC2 (stereo not shown) [CBK292171] | 113.649 |
| CC(=O)c1ccc(-c2nccnc2N(C)Cc2ccccc2)s1 [CBK037504] | 130.194 |

Source: article PMC12040169 (PLOS Biology, 2025)
